Test [1] deals with NEUROD1 (mouse (endogenous in adult hippocampus and primary hippocampal neurons)) (UniProt Q60867). Briefly: co-IP; NEUROD1 immunoprecipitation, immunoblot of FOXG1; adult hippocampus (in vivo) (n = 1). Background: In western blotting, separated proteins are transferred to a membrane and probed.
For test [2] the target is unchanged. Nature of the test: co-IP; NEUROD1 immunoprecipitation, immunoblot of FOXG1; primary hippocampal neurons (in vitro) (n = 1).
Test [3] has as its target EP300 (mouse (endogenous in adult hippocampal tissue)) (UniProt B2RWS6). Briefly: co-IP; co-IP from hippocampal tissue of adult WT animals, immunoblots (n = 1); which protein was precipitated is not told.
Test [4] addresses HDAC1 (mouse (endogenous in adult hippocampal tissue)) (UniProt O09106). The description is as above.
The target of test [5] is HDAC2 (mouse (endogenous in adult hippocampal tissue)) (UniProt P70288). The test is described as above.
The target of test [6] is T1, SIRT1 (mouse (endogenous in adult hippocampal tissue)) (UniProt Q923E4).
T1 sequence: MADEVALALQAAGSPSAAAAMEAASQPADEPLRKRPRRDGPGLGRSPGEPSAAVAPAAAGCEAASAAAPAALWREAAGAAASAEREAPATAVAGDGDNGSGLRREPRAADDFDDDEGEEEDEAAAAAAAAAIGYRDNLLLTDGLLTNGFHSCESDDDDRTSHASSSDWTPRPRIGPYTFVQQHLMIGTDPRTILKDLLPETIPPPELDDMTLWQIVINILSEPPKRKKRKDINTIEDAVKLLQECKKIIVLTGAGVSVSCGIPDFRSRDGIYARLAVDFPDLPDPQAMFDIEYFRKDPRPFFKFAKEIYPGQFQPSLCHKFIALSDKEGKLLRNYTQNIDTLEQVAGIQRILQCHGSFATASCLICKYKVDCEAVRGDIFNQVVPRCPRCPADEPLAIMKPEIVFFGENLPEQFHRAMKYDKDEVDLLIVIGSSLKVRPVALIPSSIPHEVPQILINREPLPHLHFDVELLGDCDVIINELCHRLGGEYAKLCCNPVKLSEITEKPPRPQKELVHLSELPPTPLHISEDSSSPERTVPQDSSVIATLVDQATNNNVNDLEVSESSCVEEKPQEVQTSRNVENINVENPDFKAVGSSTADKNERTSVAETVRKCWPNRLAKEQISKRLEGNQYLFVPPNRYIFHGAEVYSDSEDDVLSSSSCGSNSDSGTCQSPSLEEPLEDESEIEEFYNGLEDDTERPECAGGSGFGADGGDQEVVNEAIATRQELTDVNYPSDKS
Described as above.

By UniProt entry, the sequences of proteins in these tests, tags left out.
UniProt Q60867: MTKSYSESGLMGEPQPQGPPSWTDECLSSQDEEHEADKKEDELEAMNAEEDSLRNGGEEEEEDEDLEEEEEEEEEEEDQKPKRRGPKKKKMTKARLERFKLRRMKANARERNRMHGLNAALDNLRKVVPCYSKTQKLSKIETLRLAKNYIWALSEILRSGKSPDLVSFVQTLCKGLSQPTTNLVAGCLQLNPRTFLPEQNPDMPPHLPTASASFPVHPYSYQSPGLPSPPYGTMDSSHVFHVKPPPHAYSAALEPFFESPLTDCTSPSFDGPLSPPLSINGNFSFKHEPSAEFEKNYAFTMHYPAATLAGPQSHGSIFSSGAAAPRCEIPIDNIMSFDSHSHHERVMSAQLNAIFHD
UniProt B2RWS6: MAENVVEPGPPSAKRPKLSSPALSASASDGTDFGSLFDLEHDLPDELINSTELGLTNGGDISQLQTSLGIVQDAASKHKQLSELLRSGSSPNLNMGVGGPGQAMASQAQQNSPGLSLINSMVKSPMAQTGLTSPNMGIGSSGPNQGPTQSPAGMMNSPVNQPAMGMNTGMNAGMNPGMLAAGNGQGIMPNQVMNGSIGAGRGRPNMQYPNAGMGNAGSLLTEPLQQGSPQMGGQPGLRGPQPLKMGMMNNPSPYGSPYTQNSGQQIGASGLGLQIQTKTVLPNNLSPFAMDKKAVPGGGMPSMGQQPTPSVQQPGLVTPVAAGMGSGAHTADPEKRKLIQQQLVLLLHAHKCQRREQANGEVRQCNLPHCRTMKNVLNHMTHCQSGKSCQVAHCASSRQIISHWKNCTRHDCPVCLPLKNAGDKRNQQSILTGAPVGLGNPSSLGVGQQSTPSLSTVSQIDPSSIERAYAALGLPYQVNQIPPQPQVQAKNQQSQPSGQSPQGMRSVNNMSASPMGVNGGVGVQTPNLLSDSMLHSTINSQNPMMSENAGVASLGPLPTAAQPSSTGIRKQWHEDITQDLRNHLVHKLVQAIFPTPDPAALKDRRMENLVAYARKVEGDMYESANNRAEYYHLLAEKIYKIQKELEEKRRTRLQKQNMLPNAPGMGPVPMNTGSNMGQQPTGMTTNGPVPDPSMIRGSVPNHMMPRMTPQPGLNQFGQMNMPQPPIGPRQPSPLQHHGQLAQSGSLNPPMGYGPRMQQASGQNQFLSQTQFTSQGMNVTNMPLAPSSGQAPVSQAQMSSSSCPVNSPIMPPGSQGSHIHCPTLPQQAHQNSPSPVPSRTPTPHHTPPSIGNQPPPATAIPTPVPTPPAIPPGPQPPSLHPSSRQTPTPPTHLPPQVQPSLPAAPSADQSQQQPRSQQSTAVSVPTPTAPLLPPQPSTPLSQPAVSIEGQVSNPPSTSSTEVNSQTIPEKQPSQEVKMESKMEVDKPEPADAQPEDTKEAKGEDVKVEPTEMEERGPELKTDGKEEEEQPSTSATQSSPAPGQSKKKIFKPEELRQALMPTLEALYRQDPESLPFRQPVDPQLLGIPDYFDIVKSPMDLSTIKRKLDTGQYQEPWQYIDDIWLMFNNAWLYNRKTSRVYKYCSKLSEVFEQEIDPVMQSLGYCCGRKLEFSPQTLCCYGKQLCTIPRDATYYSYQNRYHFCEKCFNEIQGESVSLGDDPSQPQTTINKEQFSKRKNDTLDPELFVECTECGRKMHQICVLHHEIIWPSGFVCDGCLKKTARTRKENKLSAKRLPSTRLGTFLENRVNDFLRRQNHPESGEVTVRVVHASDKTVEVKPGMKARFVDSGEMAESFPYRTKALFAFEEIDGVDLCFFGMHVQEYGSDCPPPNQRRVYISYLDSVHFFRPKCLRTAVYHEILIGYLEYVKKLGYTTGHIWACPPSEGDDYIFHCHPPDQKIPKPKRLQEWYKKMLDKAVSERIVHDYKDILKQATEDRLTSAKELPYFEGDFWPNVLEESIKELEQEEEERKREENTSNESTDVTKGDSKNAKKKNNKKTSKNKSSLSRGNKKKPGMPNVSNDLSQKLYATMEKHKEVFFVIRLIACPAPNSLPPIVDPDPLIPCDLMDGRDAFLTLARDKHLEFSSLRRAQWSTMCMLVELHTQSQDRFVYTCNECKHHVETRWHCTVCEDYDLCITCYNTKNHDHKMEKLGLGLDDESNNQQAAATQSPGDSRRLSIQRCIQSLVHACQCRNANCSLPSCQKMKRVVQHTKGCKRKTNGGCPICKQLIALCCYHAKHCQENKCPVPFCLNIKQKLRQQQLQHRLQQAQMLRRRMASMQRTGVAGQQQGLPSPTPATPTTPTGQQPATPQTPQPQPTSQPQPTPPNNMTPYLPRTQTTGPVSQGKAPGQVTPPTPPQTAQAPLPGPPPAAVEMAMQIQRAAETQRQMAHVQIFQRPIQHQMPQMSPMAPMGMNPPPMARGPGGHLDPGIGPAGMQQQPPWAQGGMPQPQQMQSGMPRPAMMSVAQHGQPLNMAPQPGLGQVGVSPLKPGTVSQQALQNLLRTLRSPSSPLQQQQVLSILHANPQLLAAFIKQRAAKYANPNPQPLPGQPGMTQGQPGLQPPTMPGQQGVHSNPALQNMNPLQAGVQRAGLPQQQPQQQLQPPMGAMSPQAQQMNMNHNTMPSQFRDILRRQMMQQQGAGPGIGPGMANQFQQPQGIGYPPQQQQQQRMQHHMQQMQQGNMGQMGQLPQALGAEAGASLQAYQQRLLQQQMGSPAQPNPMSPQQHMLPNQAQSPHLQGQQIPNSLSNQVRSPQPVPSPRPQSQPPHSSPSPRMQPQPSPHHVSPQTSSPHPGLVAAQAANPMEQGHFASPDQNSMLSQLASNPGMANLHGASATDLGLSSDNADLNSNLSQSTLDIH
UniProt O09106: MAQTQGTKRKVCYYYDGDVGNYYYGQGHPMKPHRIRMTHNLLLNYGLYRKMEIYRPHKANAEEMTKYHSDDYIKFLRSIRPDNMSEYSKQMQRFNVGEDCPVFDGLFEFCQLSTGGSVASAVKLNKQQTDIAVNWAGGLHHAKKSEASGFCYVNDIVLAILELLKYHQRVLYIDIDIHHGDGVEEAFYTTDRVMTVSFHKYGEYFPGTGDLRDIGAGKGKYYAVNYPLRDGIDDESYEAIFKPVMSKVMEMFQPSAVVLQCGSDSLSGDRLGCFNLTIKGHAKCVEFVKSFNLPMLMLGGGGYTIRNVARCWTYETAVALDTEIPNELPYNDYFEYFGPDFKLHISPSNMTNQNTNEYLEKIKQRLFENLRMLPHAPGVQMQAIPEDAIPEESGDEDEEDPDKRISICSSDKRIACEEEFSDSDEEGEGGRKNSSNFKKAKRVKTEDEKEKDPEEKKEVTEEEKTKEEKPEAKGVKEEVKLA
UniProt P70288: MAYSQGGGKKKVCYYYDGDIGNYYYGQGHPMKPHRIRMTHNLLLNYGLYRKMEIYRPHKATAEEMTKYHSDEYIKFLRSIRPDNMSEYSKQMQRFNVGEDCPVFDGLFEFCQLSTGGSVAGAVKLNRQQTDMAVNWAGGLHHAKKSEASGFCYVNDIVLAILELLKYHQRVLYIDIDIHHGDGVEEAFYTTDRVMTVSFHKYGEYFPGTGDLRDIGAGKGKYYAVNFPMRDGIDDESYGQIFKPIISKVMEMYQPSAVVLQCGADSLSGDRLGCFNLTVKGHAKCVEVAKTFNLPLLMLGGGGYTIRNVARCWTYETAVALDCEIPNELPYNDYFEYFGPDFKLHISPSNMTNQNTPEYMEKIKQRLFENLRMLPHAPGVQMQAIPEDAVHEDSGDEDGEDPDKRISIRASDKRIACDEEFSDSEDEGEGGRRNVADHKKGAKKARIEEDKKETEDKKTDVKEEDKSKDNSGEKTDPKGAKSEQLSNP
UniProt Q60987: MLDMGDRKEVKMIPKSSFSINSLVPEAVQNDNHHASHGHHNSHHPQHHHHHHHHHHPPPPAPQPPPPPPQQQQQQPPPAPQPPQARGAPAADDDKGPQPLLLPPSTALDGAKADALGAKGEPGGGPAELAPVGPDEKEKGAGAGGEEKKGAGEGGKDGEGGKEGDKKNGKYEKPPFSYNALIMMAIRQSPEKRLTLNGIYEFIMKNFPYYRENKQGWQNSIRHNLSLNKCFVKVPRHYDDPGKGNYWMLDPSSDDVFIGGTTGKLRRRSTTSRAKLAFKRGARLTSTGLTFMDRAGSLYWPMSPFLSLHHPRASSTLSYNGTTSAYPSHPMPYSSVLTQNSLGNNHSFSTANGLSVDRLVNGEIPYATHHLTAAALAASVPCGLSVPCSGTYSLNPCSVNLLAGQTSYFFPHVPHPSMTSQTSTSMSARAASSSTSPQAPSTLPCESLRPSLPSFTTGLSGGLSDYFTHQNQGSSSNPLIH

No constants are given. Whether binding was seen depends on the method and setting. Binding seen in cells or lysates may run through a third protein. Some entries that bind do so weakly or less than the wild type.

For the substance “Forkhead box G1 (FOXG1) (from UniProt Q60987 1-481)”, the binding entry in test [1] is listed as “binds”; in test [2], “binds”; in test [3] it was “no binding”; in test [4], “binds”; in test [5] it was “binds”; in test [6], “binds”.

For the origin of these results see PMC9926245.
